Results taken from PubChem BioAssay AID624296 (National Center for Advancing Translational Sciences (NCATS), 2012).
In all, about 350,000 compounds went through this assay and about 9,900 (2.8%) were called active. Inconclusive results, whose numbers are uncertain, are shown with a selection of clear calls. The call rests on the fitted dose curve; in most records, active means well fitted activation curve with a large enough effect; inconclusive means small, poorly fitted or top-dose-only effect; inactive means no such curve, though single readings can be large or run the other way. Potencies of inconclusive entries are left out as doubtful fits.

assay: A quantitative high throughput screen for small molecules that induce DNA re-replication in MCF 10a normal breast cells.; further: nearly all actives have a fitted effect of over 50% in size; on activity, positive = re-replication: % of control where 0% means no effect; details: MCF 10A DNA re-replication, Hoechst nuclear intensity, 48 h; activity, positive = re-replication: at 46.1 µM (top of the series)
Text: H Molecular Libraries Probe Production Network [MLPCN]
NIH Chemical Genomics Center [NCGC]
Assay Provider: Melvin DePamphilis, NICHD, NIH
Eukaryotic cells normally restrict genome duplication to once per cell division. When this process is aberrant, DNA re-replication occurs when cells reinitiate DNA replication before the first round of replication is complete. DNA re-replication induces the DNA damage response, arrests cell proliferation, and triggers apoptosis. The cell cycle components cyclin A, Cdt-1, Cdc6 and geminin are critical regulators of this process and their misregulation results in DNA re-replication in normal and cancer cells. To identify compounds that induce re-replication in normal cells, an image-based assay was used to measure DNA content of nuclei, as detected by the fluorescent DNA binding dye, Hoechst. Cell nuclei were imaged by a fluorescence scanning plate imager and compounds that induce DNA re-replication were identified by the increase of nuclei with elevated fluorescence intensity
For screening, 250 cells in 5 uL/well were dispensed into black clear 1536-well plates (Aurora) using a solenoid-based dispenser. Following transfer of 23 nL compound or DMSO vehicle by a pin tool, the plates were incubated 48 hr at 37 C and 5% CO2. After addition of 1 uL/well Hoescht stain, the plates were incubated 40 min at 37 C, 5% CO2 and total intensity of fluorescent objects (nuclei) were enumerated by an Acumen Explorer Ex3 (TTP LabTech) fluorescence scanning plate imager (405 nm excitation, 500-530 nm emission).
Keywords: NIH Roadmap, MLPCN, MLI, MLSMR, qHTS, NCGC, DNA replication, cancer
Potency means the concentration at half of the fitted maximal effect; tags describe the fitted curve by direction and shape.

Row | Compound | activity, positive = re-replication | Potency
1 | CSc1ncc(Cl)c(C(=O)Nc2ccccc2C)n1 | inactive: -1.27% | 
2 | Cc1cccc(NC(=O)CSc2ncnc3nc[nH]c23)c1C |  | active: 23.1 µM
3 | CC(NC(=O)CN1C(=O)NC(Cc2ccccc2)(Cc2ccccc2)C1=O)C12CC3CC(CC(C3)C1)C2 (stereo not drawn) |  | inconclusive [activator, single point]
4 | COC(=O)C1=C(C)NC(=S)NC1c1ccc(-c2cccc(Cl)c2)o1 (stereo not drawn) |  | inconclusive [activator, single point]
5 | COc1ccc(NC(=O)C2C3CC/C=C\CCC32)cc1 (stereo not drawn) |  | inconclusive [activator, full curve]
6 | Cc1cc(NS(=O)(=O)c2ccc(NC(=O)c3cc4c(=O)n5ccccc5nc4s3)cc2)nc(C)n1 |  | inconclusive [activator, single point]
7 | C#Cc1ccc([C@@H]2C=C(C(=O)NCc3nc4ccccc4[nH]3)O[C@H](OCC)[C@H]2CCCO)cc1 |  | inconclusive [activator, full curve, poor fit]
8 | CCOC(=O)c1sc2ccc(S(=O)(=O)N3CCCCC3)cc2c1N |  | inconclusive [activator, partial curve]
9 | Nc1nonc1-n1nnc(C(=O)N/N=C/c2cccc(F)c2)c1CN1CCCC1 |  | inconclusive [activator, single point]
10 | CC1(C)CC2CC(C)(CN2c2ncnc3ccccc23)C1 (stereo not drawn) | inactive: 21.6% | 
11 | CN(Cc1ccccc1O)CC1CCCN(CCc2ccc(Cl)cc2)C1 (stereo not drawn) |  | inconclusive [activator, partial curve, poor fit]
12 | Cc1ccc2ncnc(Nc3ccccc3)c2c1 |  | inconclusive [activator, single point]
13 | Cc1ccc(S(=O)(=O)Nc2ccc(C(=O)N3CCN(c4ccccc4O)CC3)cc2)cc1[N+](=O)[O-] |  | inconclusive [activator, full curve, poor fit]
14 | O=C(C[C@H]1C/C=C\CC[C@H](Cc2ccc(F)cc2)C(=O)OCCNC1=O)NCCO | inactive: -4.27% | 
15 | OCc1c[nH]c2ccccc12 |  | inconclusive [activator, partial curve]
16 | CCNc1nc(NC(C)C)nc(N(C#N)CCOc2ccc(Cl)cc2Cl)n1 |  | inconclusive [activator, single point]
17 | Cc1c(CCOC(=O)C23CC4CC(CC(C4)C2)C3)sc[n+]1CC#N |  | inconclusive [activator, single point]
18 | Cc1nc(N2CCN(Cc3ccccc3)CC2)nc2c1C(=O)CC(c1ccco1)C2 (stereo not drawn) |  | inconclusive [activator, single point]
